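How tested: cells in 96-well plates exposed to compound for 48 hours at five concentrations. GI50 is the concentration that inhibits growth by half. At the TGI there is no net growth.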
Test system: NCI-H322M lung
Assay: inhibition of tumour cell growth, NCI panel, 48 h

Q: Which results are given for `O=C(NNc1nc2cc(F)ccc2n2c(CN3CCCCC3)ccc12)c1cnccn1`?
A: GI50: 0.528 µM; TGI: 8.59 µM

Reference: PubChem BioAssay (NCI)
